This note sets out measurements from the supplement of paper PMC8728848.

Common to all, as to experiment: glycan array binding signal (z-score within array); higher = stronger binding
Common to all, as to conditions: glycan notation: IUPAC condensed, linker removed

In one assay the target is Gal(b1-4)Glc. A digest of the protocol:
(§1)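 Columns mapping to the same glycan were averaged after glycan names were converted to IUPAC-condensed notation. The data come from 3228 arrays in the Consortium for Functional Glycomics database, limited to those with an available protein sequence. Binding is reported as a within-array Z-score averaged across arrays of one protein sequence and across linkers.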

The target of a further assay is Gal(b1-4)Glc6S. A digest of the protocol: as §1
The target in the next assay is Gal(b1-4)GlcNAc. A digest of the protocol: as §1
Assay [1] deals with Gal(b1-4)GlcNAc(a1-6)Gal(b1-4)GlcNAc. A digest of the protocol: as §1
For the next assay, the target named is Gal(b1-4)GlcNAc(b1-2)Man. In outline:
as §1

The target of assay [2] is Gal(b1-4)GlcNAc(b1-2)Man(a1-3)Man(b1-4)GlcNAc(b1-4)GlcNAc. In outline: as §1
The target in assay [3] is Gal(b1-4)GlcNAc(b1-2)Man(a1-3)[Gal(b1-4)GlcNAc(b1-2)Man(a1-6)]Man(b1-4)GlcNAc(b1-4)GlcNAc. A digest of the protocol: as §1
Assay [4] has as its target Gal(b1-4)GlcNAc(b1-2)Man(a1-3)[Gal(b1-4)GlcNAc(b1-2)Man(a1-6)]Man(b1-4)GlcNAc(b1-4)[Fuc(a1-6)]GlcNAc. A digest of the protocol:
as §1

In assay [5] the target is Gal(b1-4)GlcNAc(b1-2)Man(a1-3)[Gal(b1-4)GlcNAc(b1-2)Man(a1-6)][Gal(b1-4)GlcNAc(b1-4)]Man(b1-4)GlcNAc(b1-4)[Fuc(a1-6)]GlcNAc. A digest of the protocol: as §1
Assay [6] addresses Gal(b1-4)GlcNAc(b1-2)Man(a1-3)[Gal(b1-4)GlcNAc(b1-2)Man(a1-6)][GlcNAc(b1-4)]Man(b1-4)GlcNAc(b1-4)[Fuc(a1-6)]GlcNAc. A digest of the protocol:
as §1

Assay [7] has as its target Gal(b1-4)GlcNAc(b1-2)Man(a1-3)[GlcNAc(b1-2)Man(a1-6)]Man(b1-4)GlcNAc(b1-4)GlcNAc. In outline:
as §1

The target in assay [8] is Gal(b1-4)GlcNAc(b1-2)Man(a1-3)[GlcNAc(b1-4)][Gal(b1-4)GlcNAc(b1-2)Man(a1-6)]Man(b1-4)GlcNAc(b1-4)GlcNAc. In outline: as §1
Assay [9] addresses Gal(b1-4)GlcNAc(b1-2)Man(a1-3)[Man(a1-6)]Man(b1-4)GlcNAc(b1-4)GlcNAc. A digest of the protocol:
as §1

Assay [10] has as its target Gal(b1-4)GlcNAc(b1-2)Man(a1-6)Man(b1-4)GlcNAc(b1-4)GlcNAc. A digest of the protocol:
as §1

The target of assay [11] is Gal(b1-4)GlcNAc(b1-2)Man(a1-6)[GlcNAc(b1-2)Man(a1-3)]Man(b1-4)GlcNAc(b1-4)GlcNAc. In outline:
as §1

Assay [12] deals with Gal(b1-4)GlcNAc(b1-2)Man(a1-6)[Man(a1-3)]Man(b1-4)GlcNAc(b1-4)GlcNAc. A digest of the protocol: as §1
Assay [13] has as its target Gal(b1-4)GlcNAc(b1-2)[Gal(b1-4)GlcNAc(b1-4)]Man(a1-3)[Gal(b1-4)GlcNAc(b1-2)Man(a1-6)]Man(b1-4)GlcNAc(b1-4)GlcNAc. A digest of the protocol: as §1
Assay [14] concerns the target Gal(b1-4)GlcNAc(b1-2)[Gal(b1-4)GlcNAc(b1-4)]Man(a1-3)[Gal(b1-4)GlcNAc(b1-2)[Gal(b1-4)GlcNAc(b1-6)]Man(a1-6)]Man(b1-4)GlcNAc(b1-4)GlcNAc. In outline: as §1
Assay [15] addresses Gal(b1-4)GlcNAc(b1-2)[Gal(b1-4)GlcNAc(b1-4)]Man(a1-3)[GlcNAc(b1-4)][Gal(b1-4)GlcNAc(b1-2)Man(a1-6)]Man(b1-4)GlcNAc(b1-4)GlcNAc. A digest of the protocol: as §1
Assay [16] concerns the target Gal(b1-4)GlcNAc(b1-2)[Gal(b1-4)GlcNAc(b1-4)]Man(a1-3)[GlcNAc(b1-4)][Gal(b1-4)GlcNAc(b1-2)[Gal(b1-4)GlcNAc(b1-6)]Man(a1-6)]Man(b1-4)GlcNAc(b1-4)GlcNAc. A digest of the protocol:
as §1

The target of assay [17] is Gal(b1-4)GlcNAc(b1-2)[Gal(b1-4)GlcNAc(b1-6)]Man(a1-6)[Gal(b1-4)GlcNAc(b1-2)Man(a1-3)]Man(b1-4)GlcNAc(b1-4)GlcNAc. In outline:
as §1

Assay [18] concerns the target Gal(b1-4)GlcNAc(b1-2)[Gal(b1-4)GlcNAc(b1-6)]Man(a1-6)[Gal(b1-4)GlcNAc(b1-2)Man(a1-3)]Man(b1-4)GlcNAc(b1-4)[Fuc(a1-6)]GlcNAc. In outline: as §1

Some of the results follow.

B1: PX9961H-bth-557-24-557 (Bacteroides thetaiotaomicron) (protein)
chain: EETRTEVEKKNYMNNAEEAKDVLLGVYRTNTLDAMYGYYLSILFNLGTDISQVEGSGNENFRIIPTNSFPTTQSEVQQTWAALYTGIYRANDFLERISNKIGSYTTTDKKLATLYIAEARALRGMFYFELVRRFGNVVLMTSTQMSNQNPATYVQSAPEKVYEYIEDDLLYACDILPYATDDQYRESNDYRFSKGAALGLLTKVYATWAGYPVKDESKWEAAAKTARILVESGKHGLLKDYEQLWKNTCNGTWDPTESLIEISFYSPTVSGNSDPVGRIGKWNGVKTTAIAGVRGSCAANVKVVHTFVLDWREDVSDIRRDLSIANYQYTDTKKSLWVAGASDTDESAAEKDADPTKAQKNKQNYTPAKWDIQKYVTTNSFINNDKSNVNWYFLRYADVLLLYAEALNEWKHGPDAEAYNAINAVRRRGYGNPSNTSACDLPQGLDETSFREAVRKERSYELSFEGHRRQDLIRWGIYYKTVQATAKELGYWWEGTGSPNYSVATYTEEGKHELFPIPQRDMDLCIQFNQNPKW
In the case of B1, the “glycan array binding signal (z-score)” value was -0.321 with Gal(b1-4)Glc; -0.027 in the assay with Gal(b1-4)Glc6S; -0.345 with Gal(b1-4)GlcNAc; 0.191 in assay [1]; -0.104 with Gal(b1-4)GlcNAc(b1-2)Man; 10.2 in [2]. In addition, the “glycan array binding signal (z-score)” value in [3] is -0.223; in [4], 4.19; in [5], -0.558; in assay [6] it was -0.405; in assay [7] it was 0.218; in assay [8] it was -0.44. For the same molecule, the “glycan array binding signal (z-score)” value in assay [9] was -0.279; in assay [10] it was -0.534; in assay [11] it was -0.399; in [12], -0.323; in [13] it was -0.114; in assay [14], 1.53. Moreover, the “glycan array binding signal (z-score)” value is 0.18 in assay [15], 2.36 in assay [16], 0.971 in assay [17] and -0.396 in [18].
